Test results from the supplement of paper PMC9446081.
Out of some 39,000 compounds screened, about 220 (0.56%) showed activity. Some of the results follow.
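Further: static incubation at 37 °C against the wild-type strain, values averaged over two biological replicates.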

The compounds below were run on Escherichia coli K-12 BW25113 (assay: relative growth (OD600 normalised to plate interquartile mean) (fraction); higher = less growth inhibition, active = 0.2 or less). Settings: 50 µM; LB; incubation time: overnight (16-24 h).
With `Cc1noc(C)c1S(=O)(=O)Nc1ccc2c(c1)C(=O)N([C@H](C)CO)C[C@@H](C)[C@H](CN(C)Cc1ccncc1)O2` the relative growth was inactive: 1.02. With `CC(C)(Sc1cc(C(C)(C)C)c(O)c(C(C)(C)C)c1)Sc1cc(C(C)(C)C)c(OC(=O)CCC(=O)O)c(C(C)(C)C)c1` the relative growth was inactive: 0.821. With `C[C@@H]1CN([C@@H](C)CO)C(=O)c2cc(NS(C)(=O)=O)ccc2O[C@@H](C)CCCCO[C@@H]1CN(C)Cc1ccc(C(F)(F)F)cc1` the relative growth was inactive: 1.01. For `Cc1ccc(S(=O)(=O)Nc2ccc3c(c2)C(=O)N([C@H](C)CO)C[C@H](C)[C@H](CN(C)C(=O)Nc2c(C)noc2C)OCCCC[C@H](C)O3)cc1`, the relative growth was inactive: 1.03. With `Cc1c(C(=O)Nc2ccc3ccccc3c2)oc2ccccc12` the relative growth was inactive: 1.01. `Cn1c(=O)c2c(nc3n2CC=NN3)n(C)c1=O` was tested, and the relative growth was inactive: 0.956. `C[C@@H]1CN([C@@H](C)CO)S(=O)(=O)c2ccc(C#Cc3ccccc3F)cc2O[C@@H]1CN(C)CC1CCOCC1` was tested, and the relative growth was inactive: 1.04. In the case of `COc1ccc(NC(=O)Nc2ccc3c(c2)C(=O)N([C@@H](C)CO)C[C@@H](C)[C@H](CN(C)C(=O)Cc2ccccc2)OCCCC[C@@H](C)O3)cc1`, the relative growth is reported as inactive: 1.01. For `CC(=O)OCC=C(C)C=CC=C(C)C=CC1=C(C)CCCC1(C)C`, the relative growth was inactive: 1.04. With `CCN1CCC[C@@H]1CN1CNC(=S)NC1` the relative growth was inactive: 0.944. For `COCC#Cc1cnc2c(c1)C(=O)N([C@H](C)CO)C[C@H](C)[C@H](CN(C)S(=O)(=O)c1cccc(OC)c1)O2`, the relative growth was inactive: 1.01. With `C[C@H](CO)N1C[C@H](C)[C@@H](CN(C)S(=O)(=O)c2cccs2)OCCCC[C@H](C)Oc2ccc(NC(=O)Nc3ccccc3)cc2C1=O` the relative growth was inactive: 1.01. In the case of `NNC(=O)c1ccccn1`, the relative growth is reported as inactive: 1.02. With `C[C@H]1CCCCO[C@H](CN(C)Cc2ccccc2)[C@@H](C)CN([C@@H](C)CO)C(=O)c2cc(NC(=O)Nc3cccc4ccccc34)ccc2O1` the relative growth was inactive: 0.996. In the case of `Cc1noc(C)c1S(=O)(=O)N(C)C[C@H]1OCCCC[C@@H](C)Oc2ccc(NC(=O)Nc3cccc4ccccc34)cc2C(=O)N([C@H](C)CO)C[C@@H]1C`, the relative growth is reported as inactive: 1.01. For `Cc1noc(C)c1NC(=O)Nc1ccc2c(c1)C(=O)N([C@@H](C)CO)C[C@@H](C)[C@@H](CN(C)Cc1ccc3c(c1)OCO3)OCCCC[C@@H](C)O2`, the relative growth was inactive: 0.966. For `COC(=O)c1cn(CC(N)=O)c2ccccc12`, the relative growth was inactive: 0.972. With `C[C@@H]1CN([C@@H](C)CO)C(=O)c2cc(NS(=O)(=O)c3ccccc3)ccc2O[C@H]1CN(C)Cc1ccncc1` the relative growth was inactive: 1.02. With `C[C@@H]1CCCCO[C@@H](CN(C)CC2CCCCC2)[C@H](C)CN([C@@H](C)CO)C(=O)c2cc(NC(=O)CCCCCC(=O)Nc3ccccc3N)ccc2O1` the relative growth was inactive: 0.957. For `Nc1ncnc(N[C@H]2CCS(=O)(=O)C2)c1[N+](=O)[O-]`, the relative growth was inactive: 1.01. With `COc1ccc(S(=O)(=O)N(C)C[C@@H]2Oc3ccc(NS(=O)(=O)c4c(C)noc4C)cc3CC(=O)N([C@@H](C)CO)C[C@@H]2C)cc1` the relative growth was inactive: 0.968. For `C[C@@H]1CN([C@@H](C)CO)C(=O)c2cc(NC(=O)Nc3cccc4ccccc34)ccc2O[C@@H](C)CCCCO[C@H]1CN(C)C(=O)c1ccccc1`, the relative growth was inactive: 1.01. `COc1ccc(S(=O)(=O)N(C)C[C@H]2Oc3c(NC(=O)c4cc(C)nn4C)cccc3C(=O)N([C@H](C)CO)C[C@@H]2C)cc1` was tested, and the relative growth was inactive: 0.996. With `O=C(C[C@H]1CC[C@H](NC(=O)CN2CCOCC2)[C@@H](CO)O1)NCc1cccc(F)c1` the relative growth was inactive: 0.977. In the case of `CS(=O)(=O)c1nnnn1-c1ccc2c(c1)OCO2`, the relative growth is reported as inactive: 0.995. In the case of `O=C(C[C@@H]1C[C@H]2c3cc(NS(=O)(=O)c4ccc(F)cc4)ccc3O[C@H]2[C@@H](CO)O1)NCCN1CCCCC1`, the relative growth is reported as inactive: 0.987. In the case of `C#Cc1cnc(OC)cn1`, the relative growth is reported as inactive: 0.992. With `Cc1noc(C)c1S(=O)(=O)Nc1ccc2c(c1)C(=O)N([C@@H](C)CO)C[C@@H](C)[C@H](CN(C)Cc1ccc(Cl)c(Cl)c1)OCCCC[C@@H](C)O2` the relative growth was inactive: 0.987. In the case of `COc1ccc2c3c(n(c2c1)C)[C@H](CO)N(C[C@]13CN(C1)C(=O)Cc1ccccc1)C(=O)c1ccccn1`, the relative growth is reported as inactive: 1.01. With `O=C(C[C@H]1CC[C@H]2[C@@H](COC[C@@H](O)CN2S(=O)(=O)c2ccccc2F)O1)NCc1ccccc1Cl` the relative growth was inactive: 1. With `C/C=C/c1ccc2c(c1)O[C@@H](CN(C)C(=O)c1ccc3c(c1)OCO3)[C@H](C)CN([C@@H](C)CO)S2(=O)=O` the relative growth was inactive: 0.996. With `Cc1ccc(S(=O)(=O)N2C[C@H](O)COC[C@@H]3O[C@@H](CC(=O)N4CCc5ccccc5C4)CC[C@H]32)cc1` the relative growth was inactive: 1. `C[C@@H]1CN([C@@H](C)CO)C(=O)c2cccc(NC(=O)C3CCOCC3)c2O[C@H]1CN(C)Cc1ccncc1` was tested, and the relative growth was inactive: 0.997. `C[C@H](CO)N1C[C@H](C)[C@H](CN(C)S(=O)(=O)c2ccc(Cl)cc2)Oc2ccc(NC(=O)CCN3CCOCC3)cc2CC1=O` was tested, and the relative growth was inactive: 0.947. With `COC(=O)C[C@H]1CC[C@H](N)[C@@H](CO)O1` the relative growth was inactive: 0.982. `COCC(=O)Nc1ccc2c(c1)C(=O)N(C)C[C@@H](OC)[C@@H](C)CN(Cc1ccccc1F)[C@H](C)CO2` was tested, and the relative growth was inactive: 0.994. With `C[C@H]1CN([C@@H](C)CO)C(=O)Cc2cc(NC(=O)CCN3CCOCC3)ccc2O[C@@H]1CN(C)S(=O)(=O)c1ccc(Cl)cc1` the relative growth was inactive: 1. In the case of `C[C@H]1CN([C@@H](C)CO)C(=O)c2cc(NC(=O)CCN3CCOCC3)ccc2O[C@@H]1CN(C)CC1CCCCC1`, the relative growth is reported as inactive: 0.993. For `Cc1noc(C)c1NC(=O)N(C)C[C@@H]1Oc2c(NS(C)(=O)=O)cccc2C(=O)N([C@@H](C)CO)C[C@@H]1C`, the relative growth was inactive: 0.991. For `C[C@H](CO)N1C[C@H](C)[C@@H](CN(C)Cc2ccc(C(=O)O)cc2)Oc2ccc(NC(=O)Nc3cccc4ccccc34)cc2CC1=O`, the relative growth was inactive: 0.989.
